From PubChem BioAssay AID887 (National Center for Advancing Translational Sciences (NCATS), 2007)
In all, about 74,000 compounds went through this assay and about 1,100 (1.5%) were called active. This list was built around the results that the source calls inconclusive (neither active nor inactive); the mix of calls is not that of the screen. Calls come from the whole dose curve; as a rule, active = well fitted inhibition curve with a large enough effect; inconclusive = small, poorly fitted or top-dose-only effect; inactive = no such curve, though single readings can be large or run the other way. Potencies of inconclusive entries are left out as doubtful fits.

Target: Polyunsaturated fatty acid lipoxygenase ALOX15 (Homo sapiens) (UniProt P16050)
Chain of UniProt P16050 (P16050 whole entry, looked up): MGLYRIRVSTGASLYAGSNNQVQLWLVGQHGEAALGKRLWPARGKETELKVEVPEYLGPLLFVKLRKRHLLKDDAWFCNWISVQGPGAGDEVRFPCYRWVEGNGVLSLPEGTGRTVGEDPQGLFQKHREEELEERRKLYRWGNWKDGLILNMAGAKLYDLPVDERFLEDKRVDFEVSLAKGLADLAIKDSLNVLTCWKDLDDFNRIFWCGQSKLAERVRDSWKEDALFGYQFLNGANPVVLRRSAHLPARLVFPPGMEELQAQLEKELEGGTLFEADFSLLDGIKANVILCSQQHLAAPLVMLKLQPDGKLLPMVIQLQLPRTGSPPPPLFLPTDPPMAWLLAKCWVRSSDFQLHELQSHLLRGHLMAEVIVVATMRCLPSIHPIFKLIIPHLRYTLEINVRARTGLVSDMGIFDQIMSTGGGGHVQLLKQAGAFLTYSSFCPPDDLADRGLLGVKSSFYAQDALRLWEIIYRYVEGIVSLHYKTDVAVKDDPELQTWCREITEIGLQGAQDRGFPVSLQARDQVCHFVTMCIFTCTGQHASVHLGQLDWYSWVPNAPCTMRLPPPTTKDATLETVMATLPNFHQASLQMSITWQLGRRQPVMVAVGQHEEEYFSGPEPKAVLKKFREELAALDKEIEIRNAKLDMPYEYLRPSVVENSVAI
Assay: qHTS Assay for Inhibitors of 15-hLO (15-human lipoxygenase); note: nearly all actives have a fitted effect of over 55% in size
Settings: purified 15hLO-1, xylenol orange hydroperoxide absorbance; activity change, negative = inhibition: at 57.1 µM (top of the series) unless noted
Summary of the method: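 Hydroperoxide formed from arachidonic acid (50 uM) by purified human 15hLO-1 (40 nM) oxidizes ferrous iron, and the ferric-xylenol orange complex is read at 573 versus 405 nm. Compounds were preincubated 15 min; reaction ran 6 min at room temperature.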
% is set by controls: 0 for no effect and ±100 for the full control effect; potency is the fitted concentration of half-maximal effect; tags give direction and shape of the fitted curve.

Compound | Potency | activity change, negative = inhibition
c1ccc(OCc2nnc3sc(-c4cccs4)nn23)cc1 | inconclusive [inhibitor, partial curve, poor fit] | –
COC(=O)c1ccc(C(NC(=O)OCc2ccccc2)/C(C)=C/[C@@H](C)C(=O)NCc2nn(-c3ccccc3)nc2C)cc1 (some centres not stated) | – | inactive: -10.6%
CC1(C)C(=O)NC2=C1C(=O)C(=O)c1ccccc12 | inconclusive [inhibitor, partial curve] | –
Cc1ccccc1-n1nc(C(=O)O)c(C)c(C#N)c1=O | inconclusive [inhibitor, single point] | –
Cc1cc(C)c(NC(=O)CN2CCN(C)CC2)c(C)c1 | inconclusive [inhibitor, partial curve] | –
COc1ccc(C(=O)Nn2c(SCC(=O)NCc3ccco3)nc3ccccc3c2=O)cc1 | inconclusive [inhibitor, single point] | –
Nc1c(NCCCN2CCOCC2)c2ccccc2oc1=O | inconclusive [inhibitor, full curve, poor fit] | –
Cc1ccc(-c2csc3ncnc(OCC(=O)NC(=O)NCc4ccco4)c23)cc1 | inconclusive [inhibitor, partial curve, poor fit] | –
CCOc1ccccc1OCc1nn2c(COc3ccccc3)nnc2s1 | active: 3.16 µM | –
NCCCc1ccc2oc3ccccc3c2c1 | – | inactive: -1.27% [at 11.4 µM]
COC(=O)[C@H]1[C@@H]2C[C@H]3c4[nH]c5ccccc5c4CCN3C[C@@H]2CC[C@@H]1O | inconclusive [inhibitor, partial curve] | –
N#CCSc1nc(Nc2ccc3c(c2)OCO3)c2ccccc2n1 | inconclusive [inhibitor, single point] | –
CCOC(=O)CCC(NC(=O)c1ccc(NCN2C(=O)c3ccccc3C2=O)cc1)C(=O)OCC (configuration not stated) | – | inactive: 2.54%
c1coc(-c2nc3c4c5c(sc4ncn3n2)CCCC5)c1 | – | inactive: 1.07%
N#C/C(=C\c1ccc(O)c(O)c1)C(=O)c1ccc(O)c(O)c1 | active: 3.98 µM | –
CN(C)c1ncc2nc(-c3ccc(Cl)cc3)c(=O)n(-c3ccccc3)c2n1 | inconclusive [inhibitor, partial curve, poor fit] | –
CN(C)c1ccc(-c2nnc(-c3ccc(S(=O)(=O)C(F)F)cc3)o2)cc1 | inconclusive [inhibitor, partial curve] | –
CCOC(=O)c1sc(=S)n(-c2ccc3c(c2)OCO3)c1N | inconclusive [inhibitor, partial curve] | –
COC(=O)c1ccccc1NC(=O)CSc1nnnn1-c1ccc(C)cc1C | inconclusive [inhibitor, partial curve] | –
CCC(=O)N1CCN(c2ccccc2NC(=O)COc2cccc(C)c2)CC1 | inconclusive [inhibitor, single point] | –
Cc1ccc(C(=O)CSc2ccccn2)cc1 | inconclusive [inhibitor, single point] | –
Cc1cc(NC(=O)c2ccc3c(c2)C(=O)N(CCC(C)C)C3=O)no1 | – | inactive: 2.76%
CCCn1nnc(NC(=O)c2ccc(Cl)cc2Cl)n1 | – | inactive: -0.399%
CCOC(=O)c1[nH]cc(-c2ccccc2)c1N1CCOCC1 | active: 25.1 µM | –

Compound | Potency | activity change, negative = inhibition
CNC(=O)[C@@H](Cc1ccccc1)N(C)C(=O)[C@@H](Cc1ccc2ccccc2c1)N(C)C(=O)/C=C/CC(C)(C)N | inconclusive [inhibitor, single point] | –
O=C(CSc1nnc(-c2ccc(O)cc2)n1Cc1ccco1)c1cccs1 | inconclusive [inhibitor, single point] | –
CCN(CC)CCC[C@H](C)Nc1c2ccc(Cl)cc2nc2ccc(OC)cc12 | inactive | –
CCOc1cc(-c2cc(-c3ccc(N)cc3)nc(N)c2C#N)ccc1O | active: 25.1 µM | –
CCOC(=O)c1c(NC(=O)c2cccs2)sc2c1CCC2 | – | inactive: 8.12%
O=C(NCCC1=CCCCC1)c1ccc(Cl)c(S(=O)(=O)N2CCOCC2)c1 | inconclusive [inhibitor, single point] | –
CCOc1ccc2c(c1)C(C)=CC(C)(C)N2 | active: 25.1 µM | –
Cn1c(-c2ccc3c(c2)OCO3)cnc1NCc1ccccc1 | inconclusive [inhibitor, partial curve] | –
COc1ccccc1NC(=O)N1CCc2[nH]c3ccc(F)cc3c2C1 | inconclusive [inhibitor, full curve] | –
Cn1cccc1Cc1nnc(SCC(=O)Nc2ccccc2F)n1CCc1ccccc1 | active: 15.8 µM | –
CC(C)(C)C(=O)Nc1ccc(-c2cn3ccsc3n2)cc1 | – | inactive: -3.04%
CC(=O)c1cccc(NC(=O)Nc2ccc(C(=O)N3CCOCC3)cc2)c1 | – | inactive: -3.25%
CCSc1ccc2nnc(-c3ccc(F)cc3)n2n1 | inconclusive [inhibitor, single point] | –
CCc1sc(C(=O)NCc2cc(C)n(C)n2)cc1Br | inconclusive [inhibitor, partial curve] | –
CC(C)c1nc(N2CCN(C(=O)c3ccco3)CC2)c2c3c(sc2n1)CCCC3 | inconclusive [inhibitor, partial curve] | –
OCCN1CCN(C(c2cccs2)c2ccc3cccnc3c2O)CC1 (configuration not stated) | active: 3.98 µM | –
O=C(Nc1ccc2c(c1)OCO2)c1cccs1 | – | inactive: -0.175%
O=C(NC1CCCCC1)N(CCN1CCCC1)Cc1cc2cc3c(cc2[nH]c1=O)OCCO3 | inconclusive [inhibitor, single point] | –
CS(=O)(=O)NCCC1=CCCCC1 | active: 20 µM | –
Nc1ccc(N=Nc2c(S(=O)(=O)O)cc3ccccc3c2S(=O)(=O)O)cc1 | – | inactive: 8.06% [at 11.4 µM]
COc1ccc2ccc(=O)oc2c1 | – | inactive: -2.27%
CCCc1cc(-c2[nH]ncc2-c2ccc(C(=O)OCC)o2)c(O)cc1O | inconclusive [inhibitor, single point] | –
Cc1c(Br)cc(C(=O)NCc2ccco2)c(C)c1C | inconclusive [inhibitor, single point] | –
CC(C)n1c(NCc2cccs2)nc2ccccc21 | inconclusive [inhibitor, single point] | –

Compound | Potency | activity change, negative = inhibition
Cn1c(=O)c2c(SCc3ccccc3)nc(-c3ccco3)nc2n(C)c1=O | inconclusive [inhibitor, partial curve] | –
CCc1nc2oc3ccccc3c(=O)c2c(=O)n1Cc1ccccc1 | – | inactive: 12.7%
COc1ccc(-c2cn3c(C)c(C(=O)Nc4cccc(C)n4)sc3n2)cc1 | inconclusive [inhibitor, partial curve] | –
Cc1cccc2cc(CN(Cc3cccs3)C(c3nnnn3C3CCCC3)C(C)C)c(=O)[nH]c12 (configuration not stated) | inconclusive [inhibitor, single point] | –
O=C(O)CNCC1COc2ccccc2O1 (configuration not stated) | – | inactive: -7.45%
N#Cc1c(-c2ccc3c(c2)OCO3)csc1N | inconclusive [inhibitor, single point] | –
O=C(CSc1nc2nc(-c3cccs3)cc(C(F)(F)F)c2c(=O)[nH]1)NCc1ccco1 | – | inactive: -8.64%
O=C(Nc1ccc(C(=O)Nc2ccc(C(=O)Nc3ccc(S(=O)(=O)O)c4cc(S(=O)(=O)O)cc(S(=O)(=O)O)c34)cc2)cc1)Nc1ccc(C(=O)Nc2ccc(C(=O)Nc3ccc(S(=O)(=O)O)c4cc(S(=O)(=O)O)cc(S(=O)(=O)O)c34)cc2)cc1 | inconclusive [inhibitor, single point] | –
N#Cc1nc(-c2ccc(OCc3ccccc3)cc2)oc1N1CCC(C(N)=O)CC1 | inconclusive [inhibitor, single point] | –
O=C(CC(=O)c1cc(Cl)ccc1O)c1ccccc1 | inconclusive [inhibitor, single point] | –
COc1cc(OC)c(C2CC(=O)N3CN(c4ccccc4C)CSC3=C2C#N)cc1OC (configuration not stated) | inconclusive [inhibitor, full curve] | –
CSc1nc2cc(F)c(F)cc2n1C | inconclusive [inhibitor, single point] | –
Cc1ccc(CN(C(=O)Cn2nnc3ccccc32)C(C(=O)NCc2ccco2)c2cccs2)cc1 (configuration not stated) | – | inactive: -6.59%
Cc1nc2ccc(S(=O)(=O)NC(C(=O)N3CCn4c3nc3ccccc34)C(C)C)cc2s1 (configuration not stated) | inconclusive [inhibitor, single point] | –
CCC(Sc1nc2ccccc2s1)C(=O)Nc1nnc(C)s1 (configuration not stated) | – | inactive: -22.4%
CCOC(=O)c1ccccc1NC(=O)CC1Nc2ccccc2NC1=O (configuration not stated) | inconclusive [inhibitor, single point] | –
O=C1NCN(c2ccccc2)C12CCN(CCCC(c1ccc(F)cc1)c1ccc(F)cc1)CC2 | inconclusive [inhibitor, single point] | –
CCOc1ccc(C(=O)c2ccc(OC)c(O)c2O)cc1 | inconclusive [inhibitor, partial curve] | –
CC1C(O)CC2C(C(=O)O)=CO[C@@H](O[C@H]3OC(CO)C(O)C(O)C3O)C21 (some centres not stated) | – | inactive: 9%
O=C(c1cc(C(F)(F)F)cc(C(F)(F)F)c1)N1CCC2(CC1)CN(c1ccccc1)C2 | – | inactive: -16.7%
Nc1nnc(SCc2cccc(C(F)(F)F)c2)s1 | – | inactive: -6.84% [at 11.4 µM]
O=[N+]([O-])c1cccc2c(Br)[nH]nc12 | active: 12.6 µM | –
CO[C@H]1COC(=O)C/C=C\[C@@H](C)[C@H](OC)COC(=O)[C@H]2CCCN2C(=O)C/C=C\[C@@H]1C | – | inactive: 7.28% [at 11.4 µM]
CCOC(=O)Cc1nnc(NC(=O)c2ccccc2OC)s1 | – | inactive: 3.91%
